Some of the results follow.
These compounds were tested on T1, C. trachomatis L2/434/Bu expressing GFP (CTL2-GFP). Details: total inclusion area; 28.5 h, 10 µM; inhibitor.
T1 construct: L2/434/Bu GFP intracellular growth in HeLa cells
Parameters: species or system HeLa; C. trachomatis total inclusion area by high-content imaging, normalised to DMSO
Outline: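 Following bulk GFP and resorufin fluorescence reads, infected cells were fixed, Hoechst-stained and imaged on a high-content platform. Inclusion total area and number per well served as growth proxies; nuclei counts indicated host viability. MICs were derived as for the fluorescence assay.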
In the case of CCCC12CN3CC(CCC)(CN(C1)C3c1ccc([N+](=O)[O-])cc1)C2=O (stereo not drawn) [CBK264481], the “% of control remaining” value is reported as 114.43. CN(Cc1ccc(-c2ccc(S(C)(=O)=O)cc2)nc1)C1CCN(C(=O)Cc2cccc(C(F)(F)F)c2)CC1 [CBK164104T] was tested, and the “% of control remaining” value was 57.8616. In the case of Cc1nn(C)c(N2CCNCC2)c1NC(=O)C1=CC(=O)CC(C)(C)O1 [CBK050362T], the “% of control remaining” value is reported as 88.1185. In the case of CN(C(=O)CCC(=O)O)c1ccccc1C(=O)O [CBK261429], the “% of control remaining” value is reported as 104.492. O=C(Cc1ccccc1F)N1CCC(c2n[nH]c3ncccc23)CC1 [CBK284908] was tested, and the “% of control remaining” value was 100.335. For O=C1NC2(CCN(C(=O)c3ccco3)CC2)Nc2ccccc21 [CBK284762], the “% of control remaining” value was 60.9532. With CC(C)Nc1cc(SC2CCCCC2)ncn1 [CBK107163] the “% of control remaining” value was 92.5903. O=C(NCC(c1ccco1)N1CCCC1)N1CCc2ccccc2C1 (stereo not drawn) [CBK304392] was tested, and the “% of control remaining” value was 65.9877. COc1cc(C(=O)Nc2ncccc2OCCCC#N)ccc1C [CBK304568] was tested, and the “% of control remaining” value was 78.5503. With Nc1nnc(C(=O)c2cc(Br)ccc2N)s1 [CBK009811] the “% of control remaining” value was 66.2925. With Cc1ccc(N(Cc2ccco2)C(=O)c2cccc(S(=O)(=O)N(C)C)c2)cc1 [CBK267578] the “% of control remaining” value was 90.4809. COc1ccc(-n2nc3ccc(NC(=O)c4sc5ccccc5c4Cl)cc3n2)cc1Cl [CBK264633] was tested, and the “% of control remaining” value was 102.913. In the case of O=C(CN1C(=O)N2CCN=C2c2ccccc21)N1CCCC1 [CBK283945], the “% of control remaining” value is reported as 105.536. For O=c1[nH]c(=O)c2cc(S(=O)(=O)N3CCCC(c4ccccc4)C3)ccc2[nH]1 (stereo not drawn) [CBK286381], the “% of control remaining” value was 95.3356. In the case of Nc1ncnc2c1nc1n2[C@@H]2O[C@@H]([C@H](O)C2O)[C@H]1O (stereo partly drawn) [CBK201305], the “% of control remaining” value is reported as 118.483. With CC1(c2ccccc2)CC(C)(C)N(C(=O)CSc2nc3ccccc3o2)c2ccccc21 (stereo not drawn) [CBK262466] the “% of control remaining” value was 91.5161. Fc1cccc(N2CCN(Cc3ccccc3)CC2)n1 [CBK000144] was tested, and the “% of control remaining” value was 95.6726. For NS(=O)(=O)c1ccc(CCNC(=O)c2ccc(-c3ccccc3)nc2NCCc2ccccn2)cc1 [CBK076616], the “% of control remaining” value was 149.637. With CC1=CC(C)(C)N(CC(=O)c2ccc([N+](=O)[O-])cc2)c2c(C)cccc21 [CBK261652] the “% of control remaining” value was 83.3301. For CSc1nc2ccc3nc(NC(C)=O)sc3c2s1 [CBK287567], the “% of control remaining” value was 127.844. With CCCOc1ccc(O)cc1 [CBK122802] the “% of control remaining” value was 119.515. For O=c1cc(N2CCCC2)cnn1Cc1cscn1 [CBK304635], the “% of control remaining” value was 43.2131. With Sc1nnc(COc2ccccc2)n1/N=C/c1ccncc1 [CBK265360] the “% of control remaining” value was 106.197. In the case of O=C(c1cc(S(=O)(=O)NCc2ccco2)c(Cl)cc1Cl)N1CCCC1 [CBK306076], the “% of control remaining” value is reported as 40.9797. With N=C1NC(=O)/C(=C/c2cccc(OCc3cccc4ccccc34)c2)S1 [CBK263610] the “% of control remaining” value was 109.85. In the case of CC(C)(C)c1ccnc(N[C@H]2CO[C@H]3[C@@H]2OC[C@@H]3NS(=O)(=O)Cc2ccccc2)n1 [CBK289521], the “% of control remaining” value is reported as 91.0095. OC[C@H]1CCCN1c1nc(Br)cn2c(-c3ccccn3)cnc12 [CBK094394] was tested, and the “% of control remaining” value was 91.3396. For CSCCCNC(=O)c1ccccc1Nc1cccc(C(F)(F)F)c1 [CBK149551], the “% of control remaining” value was 22.8983. CN(Cc1ccccc1)S(=O)(=O)c1ccc2c(c1)n(C)c(=O)n2C [CBK266644] was tested, and the “% of control remaining” value was 114.4. CN1CCN(c2nc(-c3ccccc3)cc(-c3ccc(Br)cc3)n2)CC1 [CBK262774] was tested, and the “% of control remaining” value was 104.22. With Cc1nc2c(c(=O)[nH]1)CCN(Cc1[nH]c3ccc(F)cc3c1C)C2 [CBK283996] the “% of control remaining” value was 97.2375. For O=c1c(-c2ccco2)[n+]([O-])c2ccccc2n1OCc1ccccn1 [CBK266570], the “% of control remaining” value was 109.879. CC1(C)CC(=O)C2=C(C1)c1onc(N)c1C2Cc1ccccc1 (stereo not drawn) [CBK269206] was tested, and the “% of control remaining” value was 100.629. With O=C(Cn1cnc2c(Cl)cc(Cl)cc2c1=O)N1CCCCCC1 [CBK305874] the “% of control remaining” value was 52.736. For CSc1cc(-c2ccc(Cl)cc2)c(C(=O)O)s1 [CBK126740], the “% of control remaining” value was 73.1249. Cc1ccn(CCNC(=O)c2cc3ccc(F)cc3[nH]2)n1 [CBK283209] was tested, and the “% of control remaining” value was 109.47. With COC(=O)c1c(NC(=S)NNC(=O)c2nn(C)c(C)c2Br)sc2c1CCC(C)C2 (stereo not drawn) [CBK267052] the “% of control remaining” value was 109.56. In the case of O=C(CN1CCCCC1)NN(Cc1ccccc1)c1ccccc1 [CBK261521G], the “% of control remaining” value is reported as 100.854. In the case of Cc1cccc(C)c1NC(=O)CN(Cc1ccccc1)Cc1cc2ccc(C)c(C)c2[nH]c1=O [CBK122696T], the “% of control remaining” value is reported as 61.3001. With CC(Sc1ccc(Cl)cc1)C(=O)NCCN1CCOCC1 (stereo not drawn) [CBK269316] the “% of control remaining” value was 107.264. CC1CCc2nc3ncn(CC(=O)NC4CC4)c(=O)c3cc2C1 (stereo not drawn) [CBK294401] was tested, and the “% of control remaining” value was 107.977. COc1ccc(Oc2nccc(N3CCCN(CCc4ccc5ccccc5c4)CC3)n2)cc1OC [CBK084164] was tested, and the “% of control remaining” value was 96.427. COc1ccc(-c2cn(-c3ccc4c(c3)CCO4)nn2)cc1 [CBK113027] was tested, and the “% of control remaining” value was 110.816. NC(=O)CN(Cc1ccc(Cl)cc1)S(=O)(=O)c1ccccc1 [CBK264149] was tested, and the “% of control remaining” value was 98.8423. In the case of O=C(Nc1ccncc1)c1cccn(Cc2ccccc2F)c1=O [CBK287738], the “% of control remaining” value is reported as 55.8837. With O=C(COc1ccccc1)Nc1nccs1 [CBK058018] the “% of control remaining” value was 93.7132. For Cc1cccnc1NC(=S)NC(=O)c1ccc([N+](=O)[O-])cc1 [CBK263931], the “% of control remaining” value was 107.005. In the case of CC[C@H]1CN(C(=O)c2cccnc2)CC[C@H]1CC(=O)NCc1ccc2c(c1)OCO2 [CBK288771], the “% of control remaining” value is reported as 115.187. For CC(=O)Nc1ccc(-c2cc(-c3ccc(NC(C)=O)cc3)nc(-c3ccc([N+](=O)[O-])cc3)n2)cc1 [CBK261273], the “% of control remaining” value was 94.8141. With CCCN(Cc1cccs1)C1Cc2cc(OC)c(OC)cc2C1 [CBK017567C] the “% of control remaining” value was 52.5695. For CS(=O)(=O)c1cccc(-c2cnc(NCCOc3ccccc3)c(C(=O)NCCc3ccccc3)c2)c1 [CBK076201], the “% of control remaining” value was 128.033.
